The other results are listed elsewhere or left out.
System: HSkMC (human skeletal muscle cells)
Experiment: cytotoxicity call (relative viability < 0.9)
Conditions: 10 µM

Row | Compound | cytotoxicity call
1 | C=CCOC(=O)[C@@H]1[C@H]2C(=O)O[C@H](c3ccccc3)[C@H](c3ccccc3)N2[C@H](c2ccc(OCCOC(=O)[C@H]3C[C@H]4C(=O)N5CCC[C@H]5C(=O)N4[C@H]3c3ccc(O)cc3)cc2)[C@@]12C(=O)Nc1ccc(I)cc12 | inactive
2 | Cc1noc(C)c1NC(=O)Nc1cccc2c1O[C@H](CN(C)C(=O)Nc1cccc3ccccc13)[C@@H](C)CN([C@H](C)CO)C2=O | inactive
3 | C[C@H]1NC(=O)[C@H](Cc2ccccc2)NC(=O)[C@@]23C(=O)N[C@@H](Cc4ccccc4)[C@@H]2[C@H](C)[C@@]2(C)O[C@H]2[C@H]3/C=C/C/C=C\CNC1=O | inactive
4 | CN(C)CC(=O)N1[C@@H]2c3ccc(-c4cccnc4)c(=O)n3C[C@H]1[C@H](CO)[C@H]2C(=O)NC1CCC1 | inactive
5 | O=C(NCC[C@H]1CCCCN1S(=O)(=O)c1ccc(F)cc1)C(=O)NCCN1CCOCC1 | inactive
6 | C[C@@H]1CCCCO[C@H](CN(C)C(=O)NC2CCCCC2)[C@H](C)CN([C@H](C)CO)C(=O)c2cc(NC(=O)NC3CCCCC3)ccc2O1 | inactive
7 | CCOC(=O)c1c(CN2CCN(c3ccc(C)cc3)CC2)n(-c2ccccc2)c2cc(Br)c(OC)cc12 | inactive
8 | C[C@H]1CN([C@@H](C)CO)C(=O)c2cc(-c3cncnc3)cnc2O[C@@H]1CN(C)C(=O)CN1CCOCC1 | inactive
9 | Cc1noc(C)c1NC(=O)Nc1cccc2c1O[C@@H](CN(C)Cc1ccc(C(F)(F)F)cc1)[C@H](C)CN([C@@H](C)CO)C2=O | inactive
10 | COc1cc2c(cc1OC)CN(C(=O)[C@@H]1[C@H]3C(=O)O[C@H](c4ccccc4)[C@H](c4ccccc4)N3[C@H](c3ccc(OCCO)cc3)[C@@]13C(=O)Nc1ccccc13)CC2 | inactive
11 | CCCC#Cc1cnc2c(c1)C(=O)N([C@@H](C)CO)C[C@H](C)[C@H](CN(C)S(=O)(=O)c1cccc(OC)c1)O2 | inactive
12 | C[C@H]1CN([C@@H](C)CO)S(=O)(=O)c2ccc(-c3ccncc3)cc2O[C@@H]1CN(C)S(=O)(=O)c1ccccc1F | inactive
13 | C[C@@H]1CN([C@H](C)CO)C(=O)c2cc(N(C)C)ccc2O[C@@H](C)CCCCO[C@H]1CN(C)Cc1ccc(C(F)(F)F)cc1 | inactive
14 | C[C@@H]1CN([C@@H](C)CO)C(=O)CCCn2nncc2CO[C@@H]1CN(C)S(=O)(=O)c1cn(C)cn1 | inactive
15 | COc1ccc(NC(=O)Nc2ccc3c(c2)C(=O)N([C@@H](C)CO)C[C@H](C)[C@H](CN(C)CC2CCCCC2)OCCCC[C@H](C)O3)cc1 | inactive
16 | CN(C)Cc1c(C(=O)N/N=C/c2ccncc2)nnn1-c1nonc1N | inactive
17 | C[C@@H]1CN([C@@H](C)CO)C(=O)c2cc(NS(=O)(=O)c3ccccc3)ccc2O[C@@H](C)CCCCO[C@@H]1CN(C)C(=O)Nc1ccccc1 | inactive
18 | COc1ccc(S(=O)(=O)N(C)C[C@@H]2Oc3ccc(NC(=O)Nc4ccc(Cl)c(Cl)c4)cc3CC(=O)N([C@@H](C)CO)C[C@@H]2C)cc1Cl | active
19 | COc1ccc(S(=O)(=O)Nc2ccc3c(c2)CC(=O)N([C@H](C)CO)C[C@@H](C)[C@H](CN(C)C(=O)Nc2c(C)noc2C)O3)cc1 | inactive
20 | COc1cc(O)cc(OC)c1OC | inactive

Row | Compound | cytotoxicity call
21 | COc1ccc(S(=O)(=O)Nc2ccc3c(c2)C(=O)N([C@@H](C)CO)C[C@@H](C)[C@H](CN(C)Cc2ccc(C(F)(F)F)cc2)OCCCC[C@H](C)O3)cc1 | active
22 | CCC(=O)N(C)C[C@H]1Oc2ncc(C#C[C@H](C)O)cc2C(=O)N([C@@H](C)CO)C[C@@H]1C | inactive
23 | Cc1noc(C)c1NC(=O)N(C)C[C@H]1Oc2ccc(NC(=O)NC(C)C)cc2C(=O)N([C@@H](C)CO)C[C@@H]1C | inactive
24 | CC(=O)C1(O)CCC2C3CC(C)C4=CC(=O)C=CC4(C)C3(F)C(O)CC21C (stereo not given) | inactive
25 | N#C[C@@H]1C[C@@H]2C[C@@H]2N1C(=O)[C@@H](N)[C@@]12C[C@@H]3C[C@@H](C[C@@](O)(C3)C1)C2 | inactive
26 | O=C(C[C@H]1CC[C@H](NC(=O)Nc2ccc3c(c2)OCO3)[C@@H](CO)O1)NCCCN1CCOCC1 | inactive
27 | Cc1noc(C)c1S(=O)(=O)N(C)C[C@@H]1OCCCC[C@H](C)Oc2ccc(NS(C)(=O)=O)cc2C(=O)N([C@H](C)CO)C[C@H]1C | inactive
28 | CN1C(=O)/C(=C\NCc2ccccc2)C(=O)c2c1n(C)c(=O)n(C)c2=O | inactive
29 | Oc1ccc(C2(c3ccccc3F)CCC(F)(F)CC2)cc1 | inactive
30 | C[C@H]1CCCCO[C@H](CN(C)CC2CCCCC2)[C@@H](C)CN([C@@H](C)CO)C(=O)c2cc(NC(=O)CCC(F)(F)F)ccc2O1 | inactive
31 | COc1ccc2c(c1)OC1COc3cc(OC)c(OC)cc3C1C2=O (stereo not given) | inactive
32 | NCC[C@@H]1CC[C@@H](NC(=O)C2CCCC2)[C@@H](CO)O1 | inactive
33 | O=C(C[C@H]1C[C@@H]2c3cc(NS(=O)(=O)c4ccc(F)cc4)ccc3O[C@@H]2[C@@H](CO)O1)NCc1ccccc1F | inactive
34 | O=C(C[C@@H]1C[C@@H]2c3cc(NC(=O)Cc4ccncc4)ccc3O[C@@H]2[C@H](CO)O1)NCc1cc(F)ccc1F | inactive
35 | CN(C)CC(=O)N[C@@H]1C=C[C@@H](CC(=O)NCCN2CCCCC2)O[C@H]1CO | inactive
36 | C[C@H](CO)N1C[C@H](C)[C@@H](CN(C)Cc2ccc(C(F)(F)F)cc2)Oc2ccc(NC(=O)C3CCCCC3)cc2C1=O | inactive
37 | Cc1ccc(S(=O)(=O)N(C)C[C@@H]2Oc3ncc(-c4ccncc4)cc3C(=O)N([C@H](C)CO)C[C@H]2C)cc1 | inactive
38 | C[C@H]1CN([C@@H](C)CO)C(=O)Cc2cc(NC(=O)CCN3CCOCC3)ccc2O[C@@H]1CN(C)S(=O)(=O)c1cn(C)cn1 | inactive
39 | COc1ccc(NC(=O)N(C)C[C@@H]2Oc3c(NC(=O)c4ccc(-c5nccs5)cc4)cccc3C(=O)N([C@@H](C)CO)C[C@@H]2C)cc1 | inactive
40 | C[C@@H]1CN([C@H](C)CO)C(=O)c2cc(NS(=O)(=O)c3ccc(Cl)cc3)ccc2O[C@@H](C)CCCCO[C@H]1CN(C)C(=O)Nc1ccccc1 | inactive

Reference: the antibiotic and cytotoxicity screens of Wong et al. (2023)
